For 112 molecules, displacement results are on record in PubChem BioAssay AID1240 (Sanford-Burnham Center for Chemical Genomics, 2008).

Hit rate of the full screen: of about 50,000 compounds, about 800 (1.6%) showed an effect of 50% or more. Some of the results follow.

The target of this test is Bcl-2-like protein 10 (Homo sapiens) (UniProt Q9HD36). Description: Phenotype converters, Bcl-B/TR3 peptide binding displacement, primary biochemical FP (AID 1240).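 Note: 0% = Bcl-B with tracer peptide and DMSO and 100% = tracer peptide lacking Bcl-B.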 Conditions: GST-Bcl-B / FITC-TR3 peptide fluorescence polarization; stronger effect = higher value; compound at 3.75 mg/L. For orientation: In fluorescence polarisation assays a small probe gives low polarisation when free and higher when bound to something large.
UniProt Q9HD36, sequence (Q9HD36 whole entry, looked up): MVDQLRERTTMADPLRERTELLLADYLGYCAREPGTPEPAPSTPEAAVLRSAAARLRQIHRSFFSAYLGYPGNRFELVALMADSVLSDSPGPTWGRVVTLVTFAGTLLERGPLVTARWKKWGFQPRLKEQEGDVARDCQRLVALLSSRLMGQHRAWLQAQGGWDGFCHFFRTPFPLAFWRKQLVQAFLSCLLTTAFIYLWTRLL
Consider `CCN1CCCC1CNC(=O)c1cc(OC)c(OC)c(OC)c1` (configuration not stated), for which the displacement turned out to be 6.8%.

As to `N/C(=N\OC(=O)c1cccc(Br)c1)c1ccc(Cl)cc1`, the displacement amounted to 5.5%.

As to `CCc1c(C)c2ccc(OC(=O)c3ccccc3)cc2oc1=O`, the displacement is -1%. Then `Cc1cc(/C=C2/NC(=S)NC2=O)c(C)n1-c1ccc(N2CCOCC2)cc1`, with -9%; and `CCCC(CCC)=C(C#N)C(=O)OCC`, with 0.7%; and `COc1ccc(/C=C/C(=O)Nc2c(C(C)C)cccc2C(C)C)cc1OC`, with 2.5%. Regarding `CCOc1ccc(N(CC(=O)Nc2ccccc2OC)S(C)(=O)=O)cc1`, the displacement was -9%. Then `CCCOC(=O)c1c(-c2cc(C)ccc2C)csc1N`, with -0.6%; and `Cc1cc(Br)ccc1NC(=O)c1cccc(N(C)C)c1`, with -7.6%. For the molecule `O=C(Nc1nncs1)c1cc(-c2cccc(Br)c2)nc2ccccc12`, the displacement is -22.6%. Then `O=C1S/C(=C/c2ccc3c(c2)OCO3)C(=O)N1CN1CCCC1`, with 9.4%; and `COc1ccc(OC(C)C(=O)Nc2ccc(OC)cc2OC)cc1` (configuration not stated), with 11.9%. Then `O=C1CSC(=S)N1c1cccc(Br)c1`, with 16.6%. Next, `CCOCCOC(=O)c1cccc(NC(=O)Nc2ccc(Cl)cc2)c1`: 5.8%; `C=COCCn1c2ccccc2c2cc(Br)ccc21`: -1.9%; `COC(=O)c1ccc(NC(=O)C2C3C=CC(C4CC34)C2C(=O)O)cc1` (configuration not stated): -3.2%. Take `COc1ccc(C2/C(=C(\O)c3ccccc3)C(=O)C(=O)N2CCN(C)C)cc1` (configuration not stated): the displacement is 1.2%. With `COc1ccccc1-c1nc(-c2ccccn2)no1`, the displacement is -11.3%. Then `COc1cc(C(=S)N2CCC(C)CC2)ccc1O`, with -3.5%. Consider `COc1ccc(CC(=O)Nc2ccccc2Br)cc1OC`, for which the displacement was -2.7%. Next, `O=C(/C=C/c1ccc(Cl)cc1)Nc1cccc(Br)c1`: 8%; `O=C(Nc1ccc(Cl)c(C(F)(F)F)c1)C(c1ccccc1)c1ccccc1`: 19.1%; `CCOC(=O)C1=CN(c2ccc(C)cc2)C=C(C(=O)OCC)C1c1ccc(C)s1`: 8.8%. Then `CC(=O)CCc1oc2ccc(C)cc2c1-c1ccc(Br)cc1`, with -6%. Next, `COc1ccc(Cc2cnc(NC(C)=O)s2)cc1`: 3.9%; `COc1ccc(/C=C2\C(=O)NC(=O)N(c3ccc(Br)cc3)C2=O)cc1[N+](=O)[O-]`: -5.8%; `COc1ccc(OC)c(/C=C/C(=O)Nc2ccc(N(C)C)cc2)c1`: 8%. Turning to `O=C(COc1cccc2ccccc12)Nn1cnnc1`, the displacement was -6.7%. Then `CCOC(=O)c1ccccc1NC(=O)CC1Sc2ccc(C(F)(F)F)cc2NC1=O` (configuration not stated), with 9.3%; and `O=C(Nc1cccc2ccccc12)c1ccc(CN2CCOCC2)cc1`, with -0.6%; and `O=C(Nc1ccc(Cl)cc1)c1nn2c(c1Cl)NC(c1ccc(Cl)cc1)CC2C(F)(F)F` (configuration not stated), with 11%. Next, `Cc1ccc(N2C(=O)/C(=C/c3cccc4ccccc34)SC2=S)cc1`: 9.4%; `O=C(Nc1ccc2c(c1)OCO2)c1ccc2c(c1)C(=O)N(CC1CCCO1)C2=O` (configuration not stated): 7.5%; `Cc1cc(Cl)ccc1OCC(=O)NCc1ccccn1`: -4.5%.

On to `Cc1ccc(-c2nnc(NC(=O)Nc3ccc(Cl)c(Cl)c3)s2)cc1`, for which the displacement amounted to 2.4%.

Regarding `O=C(NCCOc1ccccc1F)c1ccc(F)c2ccccc12`, the displacement worked out at 11.2%. Then `NNC(=O)/C(=C\c1ccc(Br)cc1)NC(=O)c1cccs1`, with -7.7%. Turning to `c1ccc2c(c1)[nH]c1nc3nnnn3nc12`, the displacement was -73.7%.

Turning to `Cc1ccc(C(=O)O)cc1NC(=O)CCC(=O)O`, the displacement was -1.2%. For `Cc1ccc(C)c(NC2=C(Cl)C(=O)N(c3cccc(Cl)c3)C2=O)c1`, the displacement was 7%. Next, `COc1ccc(C(=O)Nc2ccc(N3CCOCC3)cc2)cc1`: -1%. Then `COc1ccc(-c2nc(-c3cc4cc([N+](=O)[O-])c(O)cc4oc3=O)cs2)cc1`, with -16.7%; and `O=C1CS/C(=N\N=C\c2cn(Cc3ccc(Cl)cc3Cl)c3ccccc23)N1`, with 30%; and `COc1ccc(C(=O)NC(=S)N2CCCCCC2)cc1`, with 14%. In the case of `c1ccc(CC2=NNC(Cc3ccccc3)=NN2)cc1`, the displacement turned out to be 2.8%. Turning to `Cc1ccc(-c2ccc(OCC(=O)NCc3ccccc3)cc2)cc1`, the displacement amounted to 5%. Take `CC(=O)N(c1ccccc1C)S(=O)(=O)c1ccc(Cl)cc1`: the displacement is 18.6%. Next, `COC(=O)C(CCCC(C(=O)OC)C(=O)OC)C(=O)OC`: 8.3%. Then `Cc1ccc(C)c(OCC(O)CN2CCCC(C)C2)c1` (configuration not stated), with -6.7%; and `CCc1ccccc1NC1=C(Cl)C(=O)N(c2ccc(C)cc2C)C1=O`, with 16.8%.

On to `C(=N\Nc1ccccc1)/c1ccc(N2CCOCC2)cc1`, for which the displacement turned out to be 4.6%.

As for `COc1ccc(N2C(=O)/C(=C/c3cc4c(cc3Br)OCO4)SC2=S)cc1`, the displacement was -5.1%. Next, `COc1ccc(OC)c(/C=N/Nc2nc3cc(C)ccc3cc2C)c1`: -5.4%. Then `COc1cc(/C=C2\NC(=S)NC2=O)c([N+](=O)[O-])cc1OC`, with 17.8%. Next, `Cc1cc(-c2ccccc2)n(C(N)=S)n1`: -6.3%.

Take `O=C(NCc1ccccc1)c1cc2ncc(Br)cn2n1`: the displacement was -6.1%.

Turning to `CCC(Sc1nc(C)cc(C)n1)C(=O)Nc1ccc([N+](=O)[O-])cc1` (configuration not stated), the displacement is -15.6%. Then `Cc1ccc(C)c(NCN2C(=O)S/C(=C/c3cccc(Br)c3)C2=O)c1`, with 15%. Then `COCCNC(=O)c1cc2n(n1)C(C(F)(F)F)CC(c1ccc(Br)cc1)N2` (configuration not stated), with 2.4%; and `CCCC(=O)Nc1ccc(N2CCOCC2)c(Cl)c1`, with 4.5%.

Consider `C=CCN1C(=O)/C(=C\c2ccc(OCc3ccc(COc4ccc(C=O)cc4OC)cc3)c(OC)c2)SC1=S`, for which the displacement was -8.4%.

For the molecule `N#C/C(=C\c1c[nH]c2ccccc12)c1nn(CCO)c(N)c1C#N`, the displacement is -3.5%.

For `O=C(CN(c1ccc(F)cc1)S(=O)(=O)c1ccccc1)Nc1cccc2ccccc12`, the displacement is -4.4%. Then `Cc1ccc(Nc2cc(C)c3ccccc3n2)c(C)c1`, with 9.4%. Then `NC(=O)C1(N2CCCCC2)CCN(C(=S)Nc2ccc(Cl)cc2)CC1`, with -15.7%; and `CCc1ccccc1N(CC(=O)NC(C)c1ccccc1)S(C)(=O)=O` (configuration not stated), with -3.1%. Then `Cc1[nH]c2ccccc2c1/C=C/c1nc2ccccc2c(=O)n1-c1ccc([N+](=O)[O-])cc1`, with -1.5%; and `COc1cccc2cc(-c3nc(-c4cccc(Br)c4)cs3)c(=O)oc12`, with 8.2%.

As for `COc1ccc(CCNC(=O)COc2ccccc2OC)cc1`, the displacement was found to be 4.3%. Then `Cc1ccc(C2C3C(=O)N(c4cccc(Br)c4)C(=O)C3N3CCCN23)cc1` (configuration not stated), with -7.4%. Take `O=C(O)CCCCCN1C(=O)C(=O)/C(=C(/O)c2ccc(F)cc2)C1c1cccc(F)c1` (configuration not stated): the displacement is 0%. Next, `COc1c(Cl)cc(C(=O)Nc2c(C)cccc2C)cc1Cl`: 6.7%; `Cc1ccc(OCC(=O)N2CCOCC2)c(Br)c1`: 3.3%; `COc1ccccc1C1C(C(=O)Nc2ccccc2)=C(C)NC(C)=C1C(=O)Nc1ccccc1`: 11.7%. Then `CCN(CC)C(=O)c1sc(NC(=O)c2cc(OC)cc(OC)c2)c(C(=O)OC)c1C`, with -7%.

As for `Cc1ccc2[nH]c(=O)c(C(=O)/C=C\c3ccc(Br)cc3)c(-c3ccccc3)c2c1`, the displacement is -2.7%. Then `O=C(N/N=C/c1ccc(O)c(I)c1)c1ccncc1`, with 0.3%; and `CCOc1cc(Br)cc(/C=C2/SC(=S)NC2=O)c1O`, with -10.5%. Next, `COc1cc(/C=c2/sc3nc4ccccc4n3c2=O)ccc1OCc1nn[nH]n1`: 5.2%. Next, `C=CCOc1ccc(/C=C2\SC(=S)N(c3ccc([N+](=O)[O-])cc3)C2=O)cc1OC`: 8%. As to `Cc1ccc(C2(C)N(O)C(C)C(c3ccccc3)=[N+]2[O-])cc1` (configuration not stated), the displacement amounted to 8.5%. Next, `C=CCN1C(=O)/C(=C/c2ccccc2OCc2ccccc2Cl)SC1=S`: 11.6%.

Consider `O=C(Cc1ccccc1)NNC(=O)c1cccs1`, for which the displacement is -4%. In the case of `CCOc1ccc(NC(=S)NC(NC(=O)N(C)C)C(Cl)(Cl)Cl)cc1` (configuration not stated), the displacement was -15.3%. Then `COc1ccc(OC)c(N(CC(=O)Nc2ccccc2Cl)S(C)(=O)=O)c1`, with -0.4%; and `Cc1ccccc1C1(c2ccccc2C)CC1C(=O)Nc1cccc(Cl)c1` (configuration not stated), with -0.6%. Next, `COC(=O)CN(c1ccccc1OC)S(=O)(=O)c1ccccc1`: 9.4%; `O=C(Nc1ccc2c(c1)OCCO2)C(c1ccccc1)c1ccccc1`: 9.2%. As for `COc1ccc2c(c1)c(/C=C/c1nc3ccccc3c(=O)n1-c1cccc([N+](=O)[O-])c1)c(C)n2C`, the displacement was -5.1%. Turning to `Cc1cc(/C=C2/NC(=S)NC2=O)c(C)n1-c1cccc(Cl)c1`, the displacement was -12.9%.

Consider `Fc1ccc(C=NN2CCN(Cc3ccccc3)CC2)cc1`, for which the displacement worked out at 5.3%. Next, `CC(C)c1ccccc1NS(=O)(=O)c1ccccc1`: -4.2%; `CCC(=O)N1CCN(c2nc3ccc([N+](=O)[O-])cc3s2)CC1`: -8.8%. Then `O=C1c2ccccc2-c2onc3ccc(NC4CCCCC4)c1c23`, with 59.4%. Then `O=C(NCCCn1ccnc1)c1ccc(Br)o1`, with -6.5%. As to `COc1ccccc1N1CCN(C(=O)c2ccccc2I)CC1`, the displacement is 6.5%. Next, `Cc1cccc(-c2noc(-c3cccc([N+](=O)[O-])c3C)n2)c1`: 78.9%. Then `O=C(NNC(=O)c1ccc(Cl)cc1Cl)c1ccco1`, with -11.4%.

In the case of `Oc1ccccc1Nc1nnc(-c2ccccc2)c2ccccc12`, the displacement was -45.2%. Next, `O=C(Nc1ccc2nsnc2c1Br)c1sc2ccccc2c1Cl`: 2.3%; `O=C(Nc1cccc(F)c1)c1ccc(Cl)cc1Cl`: 10.3%.

Turning to `COc1ccc(N(CC(=O)O)S(C)(=O)=O)cc1`, the displacement came to 11.2%. Then `CC(C)(C)c1ccc(C2=N/C(=C\c3cccnc3)C(=O)O2)cc1`, with -2.2%; and `COc1ccc(N2C(=O)C3C4C=CC(C4=C4CCCC4)C3C2=O)cc1` (configuration not stated), with -4.3%; and `COc1ccc2c(c1)C1=NN(/C(C)=C/C(C)=O)C(c3ccc(Br)cc3)C1CC2` (configuration not stated), with 7.3%. Then `O=[N+]([O-])c1ccc(C=Nc2ccc(Oc3ccccc3)cc2)s1`, with 1%; and `O=C(CCN1CCCC1)NCC1COc2ccccc2O1` (configuration not stated), with -8.3%; and `COc1ccc(/C=C(\NC(=O)c2ccccc2)C(=O)Nc2cccc(C)c2)cc1OC`, with -4.2%. Then `CCOc1ccccc1C1NC(=O)c2c(sc3c2CCN(C)C3)N1` (configuration not stated), with 2%; and `O=C(NN1C(=O)c2ccccc2C1=O)c1ccc2c(c1)C(=O)N(c1nccs1)C2=O`, with 7.2%; and `O=C1NC(=S)N/C1=C\c1ccccc1OCc1ccc([N+](=O)[O-])cc1`, with 27.8%. As for `O=C(O)CCCCCN1C(=O)C(=O)/C(=C(/O)c2ccc(Cl)cc2)C1c1cccc([N+](=O)[O-])c1` (configuration not stated), the displacement is -13.2%.
